The values below come from paper PMC12375107.

By UniProt entry, the sequences of proteins in these tests, tags left out.
UniProt Q86WV6: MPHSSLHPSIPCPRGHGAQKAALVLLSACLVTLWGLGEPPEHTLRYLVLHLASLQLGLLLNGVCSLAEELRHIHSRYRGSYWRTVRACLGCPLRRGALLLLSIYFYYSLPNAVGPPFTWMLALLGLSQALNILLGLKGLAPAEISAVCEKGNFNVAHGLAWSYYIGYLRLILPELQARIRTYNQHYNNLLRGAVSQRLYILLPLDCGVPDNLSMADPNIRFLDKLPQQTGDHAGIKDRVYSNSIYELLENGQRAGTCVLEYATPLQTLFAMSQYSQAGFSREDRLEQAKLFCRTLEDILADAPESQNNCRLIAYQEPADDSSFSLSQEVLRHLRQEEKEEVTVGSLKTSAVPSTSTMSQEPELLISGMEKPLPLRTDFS

These are yes or no findings as the source states them, for the method shown. For some of these results: In cells and extracts the contact can be indirect. Some binding calls cover weakened binding; strength is not graded here. For some of these results: Tags and fused reporters may be left off the sequences shown.

Experiment [1] has as its target T1, endogenous mouse Sting (mouse (endogenous in MC38)) (UniProt Q3TBT3).
T1 sequence: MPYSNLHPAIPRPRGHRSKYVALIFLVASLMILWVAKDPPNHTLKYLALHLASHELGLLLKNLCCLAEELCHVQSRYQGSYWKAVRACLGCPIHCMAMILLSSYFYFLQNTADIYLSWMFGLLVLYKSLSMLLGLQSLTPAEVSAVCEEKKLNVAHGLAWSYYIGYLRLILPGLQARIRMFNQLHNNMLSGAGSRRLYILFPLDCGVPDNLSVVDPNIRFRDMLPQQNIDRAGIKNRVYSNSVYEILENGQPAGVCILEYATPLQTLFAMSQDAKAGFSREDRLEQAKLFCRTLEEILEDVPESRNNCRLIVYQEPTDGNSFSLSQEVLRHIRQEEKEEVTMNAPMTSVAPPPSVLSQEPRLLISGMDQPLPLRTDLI
The experiment in a line: co-IP; mouse proteins in mouse cells (MC38 named for Supplemental Fig. 1B, C); exogenous and endogenous; details not shown.

In experiment [2] the target is T2, Flag-tagged CAD (caspase-activated DNase) (human) (UniProt O76075).
T2 sequence: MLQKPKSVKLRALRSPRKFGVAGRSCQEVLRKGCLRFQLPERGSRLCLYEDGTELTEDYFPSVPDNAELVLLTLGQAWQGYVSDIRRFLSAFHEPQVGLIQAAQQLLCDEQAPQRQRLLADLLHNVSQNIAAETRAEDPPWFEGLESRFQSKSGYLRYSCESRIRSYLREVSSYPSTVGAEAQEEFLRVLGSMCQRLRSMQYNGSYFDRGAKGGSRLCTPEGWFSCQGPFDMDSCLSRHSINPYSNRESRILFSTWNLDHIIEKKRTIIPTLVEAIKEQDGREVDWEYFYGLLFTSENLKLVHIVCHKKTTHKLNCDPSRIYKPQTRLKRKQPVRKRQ
As to the kind of experiment: co-IP; exogenous (transfected) proteins in lysates of HEK293T, HCT116 or HT29 cells; IP lysis buffer 25 mM HEPES, 150 mM NaCl, 1 mM EDTA, 1% NP-40, 10% glycerol, pH 7.4; antibody against Flag, MYC or HA, Protein A/G magnetic beads; western blotting. For orientation: A western blot detects proteins with antibodies after separation by electrophoresis.

A further experiment addresses tagged STING (human) (UniProt Q86WV6). The experiment is described as above.
Experiment [3] concerns the target tagged STING (human), Q86WV6. Described as above. Conditions: remark: other sources report otherwise.
Experiment [4] deals with tagged STING (human), Q86WV6. The experiment in a line: co-IP; HEK293T cells; the pair co-expressed with a third protein (CAD, ICAD or ICAD-NTD), in part at different amounts; western blotting. Conditions: remark: other sources report otherwise.
Experiment [5] has as its target endogenous STING (human (endogenous in HCT116 and the indicated human cells)) (UniProt Q86WV6). As to the kind of experiment: co-IP; endogenous proteins; antibody against STING or IgG, Protein A/G magnetic beads; IP lysis buffer 25 mM HEPES, 150 mM NaCl, 1 mM EDTA, 1% NP-40, 10% glycerol, pH 7.4; western blotting.
The target in another experiment is GST-tagged STING (human) (UniProt Q86WV6). The experiment in a line: pull-down; purified GST-tagged CAD or STING incubated with untagged STING or CAD and GST-conjugated beads at 4 °C overnight; western blotting; both purified.

B1: endogenous mouse Cad (enzyme, UniProt O54788 1-344)
chain: MCAVLRQPKCVKLRALHSACKFGVAARSCQELLRKGCVRFQLPMPGSRLCLYEDGTEVTDDCFPGLPNDAELLLLTAGETWHGYVSDITRFLSVFNEPHAGVIQAARQLLSDEQAPLRQKLLADLLHHVSQNITAETREQDPSWFEGLESRFRNKSGYLRYSCESRIRGYLREVSAYTSMVDEAAQEEYLRVLGSMCQKLKSVQYNGSYFDRGAEASSRLCTPEGWFSCQGPFDLESCLSKHSINPYGNRESRILFSTWNLDHIIEKKRTVVPTLAEAIQDGREVNWEYFYSLLFTAENLKLVHIACHKKTTHKLECDRSRIYRPQTGSRRKQPARKKRPARKR
B1: the binding entry in experiment [1] was “binds”.

B2: ICAD (inhibitor of CAD) (protein, UniProt O00273 1-331)
chain: MEVTGDAGVPESGEIRTLKPCLLRRNYSREQHGVAASCLEDLRSKACDILAIDKSLTPVTLVLAEDGTIVDDDDYFLCLPSNTKFVALASNEKWAYNNSDGGTAWISQESFDVDETDSGAGLKWKNVARQLKEDLSSIILLSEEDLQMLVDAPCSDLAQELRQSCATVQRLQHTLQQVLDQREEVRQSKQLLQLYLQALEKEGSLLSKQEESKAAFGEEVDAVDTGISRETSSDVALASHILTALREKQAPELSLSSQDLELVTKEDPKALAVALNWDIKKTETVQEACERELALRLQQTQSLHSLRSISASKASPPGDLQNPKRARQDPT
Turning to B2, the results for the binding result (in experiment [2]; in the experiment with tagged STING (human)) were “binds” and “no binding”, respectively.

B3: IRF3 (interferon regulatory factor 3), Q14653 1-427 (protein)
chain: MGTPKPRILPWLVSQLDLGQLEGVAWVNKSRTRFRIPWKHGLRQDAQQEDFGIFQAWAEATGAYVPGRDKPDLPTWKRNFRSALNRKEGLRLAEDRSKDPHDPHKIYEFVNSGVGDFSQPDTSPDTNGGGSTSDTQEDILDELLGNMVLAPLPDPGPPSLAVAPEPCPQPLRSPSLDNPTPFPNLGPSENPLKRLLVPGEEWEFEVTAFYRGRQVFQQTISCPEGLRLVGSEVGDRTLPGWPVTLPDPGMSLTDRGVMSYVRHVLSCLGGGLALWRAGQWLWAQRLGHCHTYWAVSEELLPNSGHGPDGEVPKDKEGGVFDLGPFIVDLITFTEGSGRSPRYALWFCVGESWPQDQPWTKRLVMVKVVPTCLRALVEMARVGGASSLENTVDLHISNSHPLSLTSDQYKAYLQDLVEGMDFQGPGES
On to B3, for which, in experiment [3], the binding entry is on record as “binds”.

B4: IRF3 (interferon regulatory factor 3) (protein, UniProt Q14653 1-427)
chain: MGTPKPRILPWLVSQLDLGQLEGVAWVNKSRTRFRIPWKHGLRQDAQQEDFGIFQAWAEATGAYVPGRDKPDLPTWKRNFRSALNRKEGLRLAEDRSKDPHDPHKIYEFVNSGVGDFSQPDTSPDTNGGGSTSDTQEDILDELLGNMVLAPLPDPGPPSLAVAPEPCPQPLRSPSLDNPTPFPNLGPSENPLKRLLVPGEEWEFEVTAFYRGRQVFQQTISCPEGLRLVGSEVGDRTLPGWPVTLPDPGMSLTDRGVMSYVRHVLSCLGGGLALWRAGQWLWAQRLGHCHTYWAVSEELLPNSGHGPDGEVPKDKEGGVFDLGPFIVDLITFTEGSGRSPRYALWFCVGESWPQDQPWTKRLVMVKVVPTCLRALVEMARVGGASSLENTVDLHISNSHPLSLTSDQYKAYLQDLVEGMDFQGPGES
On to B4, for which the binding entry in experiment [2] is reported as “no binding”.

B5: TBK1 (TANK-binding kinase), Q9UHD2 1-729 (enzyme)
chain: MQSTSNHLWLLSDILGQGATANVFRGRHKKTGDLFAIKVFNNISFLRPVDVQMREFEVLKKLNHKNIVKLFAIEEETTTRHKVLIMEFCPCGSLYTVLEEPSNAYGLPESEFLIVLRDVVGGMNHLRENGIVHRDIKPGNIMRVIGEDGQSVYKLTDFGAARELEDDEQFVSLYGTEEYLHPDMYERAVLRKDHQKKYGATVDLWSIGVTFYHAATGSLPFRPFEGPRRNKEVMYKIITGKPSGAISGVQKAENGPIDWSGDMPVSCSLSRGLQVLLTPVLANILEADQEKCWGFDQFFAETSDILHRMVIHVFSLQQMTAHKIYIHSYNTATIFHELVYKQTKIISSNQELIYEGRRLVLEPGRLAQHFPKTTEENPIFVVSREPLNTIGLIYEKISLPKVHPRYDLDGDASMAKAITGVVCYACRIASTLLLYQELMRKGIRWLIELIKDDYNETVHKKTEVVITLDFCIRNIEKTVKVYEKLMKINLEAAELGEISDIHTKLLRLSSSQGTIETSLQDIDSRLSPGGSLADAWAHQEGTHPKDRNVEKLQVLLNCMTEIYYQFKKDKAERRLAYNEEQIHKFDKQKLYYHATKAMTHFTDECVKKYEAFLNKSEEWIRKMLHLRKQLLSLTNQCFDIEEEVSKYQEYTNELQETLPQKMFTASSGIKHTMTPIYPSSNTLVEMTLGMKKLKEEMEGVVKELAENNHILERFGSLTMDGGLRNVDCL
With B5, the binding entry in experiment [4] and in experiment [3] was “binds” in each case.

B6: TBK1 (TANK-binding kinase) (enzyme, UniProt Q9UHD2 1-729)
chain: MQSTSNHLWLLSDILGQGATANVFRGRHKKTGDLFAIKVFNNISFLRPVDVQMREFEVLKKLNHKNIVKLFAIEEETTTRHKVLIMEFCPCGSLYTVLEEPSNAYGLPESEFLIVLRDVVGGMNHLRENGIVHRDIKPGNIMRVIGEDGQSVYKLTDFGAARELEDDEQFVSLYGTEEYLHPDMYERAVLRKDHQKKYGATVDLWSIGVTFYHAATGSLPFRPFEGPRRNKEVMYKIITGKPSGAISGVQKAENGPIDWSGDMPVSCSLSRGLQVLLTPVLANILEADQEKCWGFDQFFAETSDILHRMVIHVFSLQQMTAHKIYIHSYNTATIFHELVYKQTKIISSNQELIYEGRRLVLEPGRLAQHFPKTTEENPIFVVSREPLNTIGLIYEKISLPKVHPRYDLDGDASMAKAITGVVCYACRIASTLLLYQELMRKGIRWLIELIKDDYNETVHKKTEVVITLDFCIRNIEKTVKVYEKLMKINLEAAELGEISDIHTKLLRLSSSQGTIETSLQDIDSRLSPGGSLADAWAHQEGTHPKDRNVEKLQVLLNCMTEIYYQFKKDKAERRLAYNEEQIHKFDKQKLYYHATKAMTHFTDECVKKYEAFLNKSEEWIRKMLHLRKQLLSLTNQCFDIEEEVSKYQEYTNELQETLPQKMFTASSGIKHTMTPIYPSSNTLVEMTLGMKKLKEEMEGVVKELAENNHILERFGSLTMDGGLRNVDCL
As for B6, in experiment [2], the binding entry was “no binding”.

B7: endogenous CAD (enzyme, UniProt O76075 1-338)
chain: MLQKPKSVKLRALRSPRKFGVAGRSCQEVLRKGCLRFQLPERGSRLCLYEDGTELTEDYFPSVPDNAELVLLTLGQAWQGYVSDIRRFLSAFHEPQVGLIQAAQQLLCDEQAPQRQRLLADLLHNVSQNIAAETRAEDPPWFEGLESRFQSKSGYLRYSCESRIRSYLREVSSYPSTVGAEAQEEFLRVLGSMCQRLRSMQYNGSYFDRGAKGGSRLCTPEGWFSCQGPFDMDSCLSRHSINPYSNRESRILFSTWNLDHIIEKKRTIIPTLVEAIKEQDGREVDWEYFYGLLFTSENLKLVHIVCHKKTTHKLNCDPSRIYKPQTRLKRKQPVRKRQ
For B7, the binding result in experiment [5] is recorded as “binds”.

B8: untagged CAD (enzyme, UniProt O76075 1-338)
chain: MLQKPKSVKLRALRSPRKFGVAGRSCQEVLRKGCLRFQLPERGSRLCLYEDGTELTEDYFPSVPDNAELVLLTLGQAWQGYVSDIRRFLSAFHEPQVGLIQAAQQLLCDEQAPQRQRLLADLLHNVSQNIAAETRAEDPPWFEGLESRFQSKSGYLRYSCESRIRSYLREVSSYPSTVGAEAQEEFLRVLGSMCQRLRSMQYNGSYFDRGAKGGSRLCTPEGWFSCQGPFDMDSCLSRHSINPYSNRESRILFSTWNLDHIIEKKRTIIPTLVEAIKEQDGREVDWEYFYGLLFTSENLKLVHIVCHKKTTHKLNCDPSRIYKPQTRLKRKQPVRKRQ
Consider B8, for which the binding entry with GST-tagged STING (human) is “binds”.
